This is one part of the list. At the low end of the ranking the order means little. Measured with an extract: partners may take part in the binding.

In the assay the target is T1, HNF4alpha2 (COS-7 nuclear extract) (UniProt P41235).
T1 sequence: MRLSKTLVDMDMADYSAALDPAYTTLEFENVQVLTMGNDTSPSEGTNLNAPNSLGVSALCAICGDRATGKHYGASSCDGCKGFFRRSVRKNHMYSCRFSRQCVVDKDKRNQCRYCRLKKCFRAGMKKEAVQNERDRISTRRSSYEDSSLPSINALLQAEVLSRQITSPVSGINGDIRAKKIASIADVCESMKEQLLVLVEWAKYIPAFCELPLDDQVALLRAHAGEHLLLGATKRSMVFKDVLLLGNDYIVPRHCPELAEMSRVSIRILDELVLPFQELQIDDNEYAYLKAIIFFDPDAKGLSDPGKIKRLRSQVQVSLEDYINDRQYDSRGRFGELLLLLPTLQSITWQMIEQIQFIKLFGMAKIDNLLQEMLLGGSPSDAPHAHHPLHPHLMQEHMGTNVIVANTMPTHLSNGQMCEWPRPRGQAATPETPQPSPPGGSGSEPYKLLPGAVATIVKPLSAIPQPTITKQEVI
As to the kind of experiment: protein-binding microarray. The conditions noted are these: COS-7 nuclear extract on double-stranded Agilent 4x180k PBM; binding buffer, salt, pH and temperature not given; high values mean tight binding; double strand, one strand shown; sequences stand for … in …GCCTAGGGAGATTAGAGTATCGGTCGA
Consider GGCATATCTTTTTATCTCTGAATCCTCAAC, for which the binding signal (log2 normalized intensity) was 0.608. As for CGCTCCCCTCCCCCACCCGCGGTCCGTCCC, the figure is 5.86. As for CTAGCCCCGCCCAGATGTCTGGCTAAGACC, the figure is 3.07; as for GCTGATAATGGAATTGACATTCAATTGCAA, -1.04. For the sequence GAACTGGTCCGGCCCGACTCACGACCCCGC, the binding signal (log2 normalized intensity) is 1.98. As for CGTCAAGGTGAAAAGCCTTTTGAAGAAACC, the figure is -0.662; as for AGATGGCATCACTCTTGCCACAGAACAGGC, -1.14; as for CCACAGGTATTCTTTCATCCCTCTCCCGCC, 2.36. The same measure for TTGTGCAAGAATGCGTCATCCGCATCTGAA: -1.01; for CGCTGACTCCGGGGAGCAGGCAGAGGAACA: -0.997. On to AGACTCAACACCCAGGCTTATCTCACTCCA, for which the binding signal (log2 normalized intensity) is -1.09. The same measure for ACAACGAGGTGCCAGAAACCTGACTTCCAA: -1.13; for TCACTTTTTATCTGCCTTTTATCTATTTGT: 1.6. For AAAGACCCTAAACCTGTTGGGTCAGGCTGC, the binding signal (log2 normalized intensity) is -1.13.

As for TCACTATTGACATTTGGGGTCAGATAATTC, the binding signal (log2 normalized intensity) worked out at 2.5. As for CCCCTTGAGACTTTAATCTCTCCTCTGACA, the figure is -0.4. The same measure for GCCGATCACTGGCCCAGCTGGTTTGAAGAA: -0.927; for AGTTTGGAGATGCCGTTAAGCAGATAAGGT: 0.185; for AACAAAGGTCGGTGGTATGTGTGTGCTTTA: 2.16. The same measure for AAGGACCTCCTGAGATAGGTATGATAACCC: 0.367. On to GACCTTTGCTCATGACTATTCTCTAAACTC, for which the binding signal (log2 normalized intensity) is 3.93.

Regarding AATTTATAGGCACTAGGTGTTCCTCAGCCT, the binding signal (log2 normalized intensity) is -1.19. Regarding AGAAACTCAATCGCCTTTTATTTTTCCCCT, the binding signal (log2 normalized intensity) turned out to be 1.9. The same measure for GAATTTGGTTACTCGCCTTAGAAATATTCA: -0.82. CATGGAGGATTTAGATAACATCTTTTCTCA: the binding signal (log2 normalized intensity) is -0.37. As for GTAAACTCCCTTTGATGCGGTCAGAGTTCA, the figure is 3.08; as for CTTTTATAAGGGGCAGCAAACCTACCTGAA, -1.22; as for GTTATGGCACCAAGAAACCTTTCCCTCTCT, -1.

Consider TGAAACTATAAACTTGGTTACAGGACCAGG, for which the binding signal (log2 normalized intensity) was -1.09.

In the case of ATACAACCTCTGTAATAACTGCAGTGCCAC, the binding signal (log2 normalized intensity) was determined as 0.975. As for GATCAAAGGTCGGTTTTAGGACAACATGAG, the figure is 4.52. Consider CCTCAAAGTGGACTTTAGAACCCAAATAGA, for which the binding signal (log2 normalized intensity) amounted to 5.84. The same measure for TTATTTAAGATTGAGAACTTTGACACCGAG: 2.36; for ATCTTCCAAATTCTCCCAGGCCATACAGAT: 1.01; for TGTACAGGACCATGTTCTCCTAAAGTGACT: -0.786.

Take CTGCTTATCTAGGATGAGAATCCACCTGCC: the binding signal (log2 normalized intensity) is -1.07.

With GAAACTTATTGTGAACTGGAGCAAAGGTCA, the binding signal (log2 normalized intensity) is 5.28. Regarding GGCCAGGAACGTCACACTGAAAGCTATCCC, the binding signal (log2 normalized intensity) was -1.18. The same measure for GGGTGTCAAAGCCCAACCAGGATAGGGAGG: -1.11; for AAAATTCAACAAGACCCTGCCCTTTCCCCC: 4.72; for TAATTTAGATATCGCTCCAAGAGCCAACAG: -1.2. For CTCAAGAAAGAGGTGGTTCTTTCTGAGTTG, the binding signal (log2 normalized intensity) turned out to be 0.826. As for GCCCCTGGGTCGTTGGTGCTCCCCCACCCT, the figure is 4.52; as for CCCATTCCTTCTCACCGGGTGGAGCCTCAC, 0.242; as for ATGGGAAGCCTCAGGAGTTGGAGGAACAGG, -1.19. As for GGGCAGTGTTTGCCCAGCTTGAATCACTCA, the figure is -0.581; as for GTCAAATTGGTGCTTTCATCCCCTGCATCC, 2.05. As for AAATAACGAAGGCATTCTTAACAAAACCTG, the figure is -0.985; as for ACTGAGCTTTAGATAGCTGTTAAATGGAGT, 0.814; as for GTACACAAAGGTATCAGGGCTCAGGAATGT, -1.18. With GCTTCTCCTGGCTTTAGATATCAGAAATGC, the binding signal (log2 normalized intensity) came to 0.123.

Take AGGAGGAGGCCTAGGCAGTCCACAGACAAA: the binding signal (log2 normalized intensity) is -1.07. As for GTAACCACAGTACTGTCTTTTTGCCACTAG, the figure is -1.11; as for CTCTCAACTCAGTGAGGGCTATTGACAAAG, -0.637. The same measure for TGACTAGAGAGCAGGAGCCACCTGTCACTC: -1.24. As for TAGAATCTTAGGAAAGCACAGCTGATTGCT, the figure is -1.1.

CCCTGCCACTCTTTTTTAGACTTTGACCTC: the binding signal (log2 normalized intensity) was determined as 10. As for GATGGTGAGTTCTGTCCTTTGTCCCACATC, the figure is 2.26. For the sequence TCAATTTACCTCTGCTCCCCCTGCCCTTCG, the binding signal (log2 normalized intensity) was determined as 4.23. For the sequence CCTCTAGTGGCCCAGTGTCTCTGGGCGCTG, the binding signal (log2 normalized intensity) was -1.2. As for TGCCCTCTTGTCCTTCCCCTTTTGTGTTTG, the figure is 2.91; as for AGAAACCTCAAAGGTTAGGGGGATTCTGGC, -0.969; as for GGCTAAGGTCACCATGACCATAAACCACAA, -1.21. With GGTGAACTCAGTCCTTTCAGGACACCTTCA, the binding signal (log2 normalized intensity) was -1.07.

As to GGATGCCCTTTGACCTCTGCTTCCTGCTAC, the binding signal (log2 normalized intensity) turned out to be 5.58.

In the case of TGGGCTTGCCTAAGACATGCTCGCAGCTGC, the binding signal (log2 normalized intensity) was -1.12.

For the sequence TATCTGTTAGGGCCATTTGGTCTGTAGTGT, the binding signal (log2 normalized intensity) stood at 2.35. The same measure for CAGAGATACTATTGATAACATCTAACAGCT: -1.29; for GCAGGGGGCCAAGGGATACCCTGAGAGATC: -1.17; for TATGACCTTTGCTTTTCAAGATTTTACCTA: 2.14. AAAGAGGGCCCCATCATGTGTACAGAGCTG: the binding signal (log2 normalized intensity) is -1.19.

For AACCTCCCTCCAAAATATCTCACTCCCACA, the binding signal (log2 normalized intensity) turned out to be 2.13. Regarding TTTGCAGTAGGATAAGTCCTTCCAAAGTCC, the binding signal (log2 normalized intensity) turned out to be 4.1. Turning to AAGCCATAGTTAACCCAGAAGACTGTCAAC, the binding signal (log2 normalized intensity) is -1.21.

In the case of GGACAAGGGGGAGGAGAGTACTGTCTCTTA, the binding signal (log2 normalized intensity) was -1.08.

As for AGCCACCAGTGCAAATATAAAAGGCTGTCA, the binding signal (log2 normalized intensity) was -1.16.

In the case of GCTCAGGGAATGTGGGTCCACATTCCTGAT, the binding signal (log2 normalized intensity) turned out to be 0.505. With TTAGATATGGCTTATACTTGAGGTATGATG, the binding signal (log2 normalized intensity) amounted to 1.64. On to CAAACACACAATATTGACATTCCAGCCTCC, for which the binding signal (log2 normalized intensity) is -1.19.

With AGTGGAATGTGCCCTTTGACCTCTCTCTCC, the binding signal (log2 normalized intensity) was 7.71. The same measure for TCCTGATGACTGCAGAGCTTGCTCTCACCA: -1.22; for GTACTTTGTACATGGGAATAGACATTCCAG: 2.04; for AGCACAGGAAAGGGCTTTGGGGACTGAAGA: -1.07. Consider CACTTGTTTGCACAAAGGGTTATGGGAAGT, for which the binding signal (log2 normalized intensity) is 1.2. The same measure for CAGCGGGGTCAGAGAAACCTGGCTGCGAGT: -1.2; for TAAGTAGCCAAGATTACAGCCACATGCTAA: -1.11; for TTCTGAAGCCCTACAGCCCACAATTGCATG: -0.986. The same measure for GAATGGAAACCCCTGTAAGTCCAAACAAAA: 0.425; for TCCCCTAGGTGATTAGAAGATAGCTTTAAA: -1.01; for AGGTCCAACTGACATCTGGAAATGTTTGTA: 0.961. ATATTCCTGGAATGACAAGAATTGGAACCC: the binding signal (log2 normalized intensity) is 2.03. For the sequence CAGGTATTTGCTCTGTGATAGCCTTTTACC, the binding signal (log2 normalized intensity) was determined as 0.459. As for TAGAAAGTGGTTTCAAGGTGACCCCACGGA, the figure is 4.66.

The values are drawn from paper PMC10726135.
